Measured values as given in PubChem BioAssay AID588342 (National Center for Advancing Translational Sciences (NCATS), 2011).
Where “and” joins values, the source holds several entries; their conditions need not be identical. Equal entries are not always repeated. Hit rate of the full screen: of about 360,000 compounds, about 25,000 (6.9%) were called active. The shares of active, inactive and inconclusive entries below differ from those in the screen. Calls come from the whole dose curve; as a rule, active = well fitted inhibition curve with a large enough effect; inconclusive = small, poorly fitted or top-dose-only effect; inactive = flat fitted curve, though single readings scatter. Potencies of inconclusive entries are doubtful fits and often do not repeat.

Target: Luciferin 4-monooxygenase (Photinus pyralis) (UniProt P08659)
Chain of UniProt P08659 (P08659 whole entry, looked up): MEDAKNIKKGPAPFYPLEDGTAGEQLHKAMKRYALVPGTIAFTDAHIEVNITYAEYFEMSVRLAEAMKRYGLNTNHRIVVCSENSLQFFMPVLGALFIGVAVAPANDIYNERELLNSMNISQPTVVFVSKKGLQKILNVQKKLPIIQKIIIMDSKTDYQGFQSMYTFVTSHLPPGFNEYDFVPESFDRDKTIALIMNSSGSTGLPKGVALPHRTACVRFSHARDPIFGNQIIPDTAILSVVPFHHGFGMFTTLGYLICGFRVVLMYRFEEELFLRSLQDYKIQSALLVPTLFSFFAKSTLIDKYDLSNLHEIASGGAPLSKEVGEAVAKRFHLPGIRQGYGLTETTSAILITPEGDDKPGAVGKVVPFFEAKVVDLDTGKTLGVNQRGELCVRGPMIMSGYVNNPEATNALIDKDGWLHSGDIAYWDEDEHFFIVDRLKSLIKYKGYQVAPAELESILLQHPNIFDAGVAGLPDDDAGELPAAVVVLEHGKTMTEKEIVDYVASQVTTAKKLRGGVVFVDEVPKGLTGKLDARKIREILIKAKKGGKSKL
Experiment: qHTS profiling assay for firefly luciferase inhibitor/activator using purifed enzyme and Km concentrations of substrates (counterscreen for miR-21 project); note: nearly all actives have a fitted effect of over 55% in size
Details: purified FLuc, luminescence inhibition; series mostly up to 57.5 µM
Procedure, shortened: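 Purified P. pyralis luciferase (10nM final) with 10uM D-luciferin and 10uM ATP (Km levels) in 50mM Tris acetate pH 7.5, 10mM Mg acetate, 0.01% Tween-20, 0.05% BSA; qHTS 6-point titration, ~60 µM downward; luminescence read.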
Potency is the fitted concentration of half-maximal effect; tags give direction and shape of the fitted curve.

| Compound | Potency |
| --- | --- |
| Cc1ccc2c(c1)c1c(c(=O)n(Cc3ccccc3)c(=O)n1Cc1cccc(C(F)(F)F)c1)n2C | inactive |
| C=C1c2ccccc2NC(=S)N1Cc1ccc2c(c1)OCO2 | inconclusive: 37.9 µM [inhibitor, partial curve, poor fit] |
| COc1ccc(C(=O)Nc2sc(C)c(C)c2CN2CC(C)OC(C)C2)cc1 (centres undefined) | inconclusive: 26.9 µM [inhibitor, single point] |
| CCOc1ccccc1NC(=O)c1ccc2[nH]c(C)c(C)c2c1 | inconclusive: 3.38 µM [inhibitor, full curve] |
| COC(=O)Cn1ncc2c(C)n(Cc3ccccc3)c(C)c2c1=O | active: 12 µM |
| CS(=O)(=O)CCC(C(=O)Nc1ccc2c(c1)OCO2)N1Cc2ccccc2C1=O (centres undefined) | inconclusive: 37.9 µM [inhibitor, single point] |
| CC(=O)Nc1ccc(OC(=O)c2cccs2)cc1 | inconclusive: 37.9 µM [inhibitor, single point] |
| COc1ccc(-c2nc3cc(NC(=O)Cc4ccc(OC)c(OC)c4)ccc3o2)cc1 | inconclusive: 10.7 µM [inhibitor, partial curve] |
| O=C(COc1ccc(/C=N/NS(=O)(=O)c2ccccc2)cc1)Nc1ccc(F)cc1 | inconclusive: 37.9 µM [inhibitor, partial curve, poor fit] |
| O=C(COC(=O)CNC(=O)c1ccco1)NCc1ccc(F)cc1 | inactive |
| COc1ccc(/C=C/C(=O)c2ccccc2)cc1Cn1nnc2ccccc21 | inconclusive: 12 µM [inhibitor, partial curve] |
| CS(=O)(=O)n1nc(OC(=O)c2cc(Br)ccc2Cl)cc1N | inconclusive: 21.3 µM [inhibitor, partial curve, poor fit] |
| CCCCc1nnc(NC(=O)CSc2nc(O)c(Cc3ccccc3)c(=O)[nH]2)s1 | inconclusive: 9.53 µM [inhibitor, partial curve] |
| Cc1cc2oc(=O)c(CC(=O)O)c(C)c2c2occ(-c3ccc(F)cc3)c12 | active: 6.75 µM |
| COc1ccc(NS(=O)(=O)c2cc(Br)cc3c2N(C(C)=O)CC3)cc1 | inactive |
| C/C(=N\Nc1cc(C)nc(-c2ccccc2O)n1)c1ccccc1 | active: 9.53 µM |
| Cc1ccc(SC2CCN(C(=O)C3CCC(=O)N(C4CC4)C3)CC2)cc1 (centres undefined) | inconclusive: 26.9 µM [inhibitor, partial curve, poor fit] |
| Cc1cccc(-c2noc(-c3cccnc3NCc3ccco3)n2)c1 | inconclusive: 13.5 µM [inhibitor, partial curve] |
| O=C(Nc1cccc(NC(=O)c2ccc(Br)o2)c1)c1ccccc1 | inconclusive: 26.9 µM [inhibitor, single point] and inconclusive: 23.9 µM [inhibitor, single point] |
| COc1cccc(C2c3c(oc4ccc(C)cc4c3=O)C(=O)N2CCCN2CCOCC2)c1OC (centres undefined) | inactive |
| Cc1ccc(CNc2nc3ccccc3n3c(C)nnc23)cc1 | inconclusive: 9.53 µM [inhibitor, partial curve, poor fit] |
| O=C(O)c1ccccc1C(=O)Nc1cc(-c2ccccc2)[nH]n1 | inconclusive: 26.9 µM [inhibitor, single point] |
| CCC/C(C)=N\Nc1nc2c(c(=O)n(C)c(=O)n2C)n1C | inconclusive: 30.1 µM [inhibitor, partial curve, poor fit] |

| Compound | Potency |
| --- | --- |
| CC(C)(C)c1ccccc1NC(=O)c1ccc2c(c1)SC1=NS(=O)(=O)CCN12 | inactive |
| COc1cc(SC#N)ccc1N=Cc1c(C)[nH]n(-c2cccc3ccccc23)c1=O | inconclusive: 12 µM [inhibitor, partial curve] |
| O=C(Nc1ccc2c(c1)OCCO2)C(=O)c1c[nH]c2ccccc12 | active: 0.19 µM |
| CN1CCN(c2ccccc2NC(=O)c2ccc([N+](=O)[O-])cc2Cl)CC1 | inactive |
| COc1cccc(NC(=O)CSc2nc3n[nH]c(C)c3c(=N)n2-c2cccc(OC)c2)c1 | inactive |
| C=CCn1c(C)cc(C(=O)CSc2nc3ccccc3o2)c1C | active: 1.9 µM |
| CC(=O)N1CCCc2cc(S(=O)(=O)N(C)CC(=O)Nc3ccc(C)cc3C)ccc21 | inactive |
| CCN1C/C(=C\c2cccc([N+](=O)[O-])c2)C(=O)/C(=C/c2cccc([N+](=O)[O-])c2)C1 | inactive |
| O=C(N=C1SC2CS(=O)(=O)CC2N1c1ccc(F)cc1F)C1CC1 (centres undefined) | inactive |
| CCN(CC)C(=O)COc1coc(CN2CCN(c3ccccc3F)CC2)cc1=O | inactive |
| O=C(Nc1cc2c(oc1=O)CCCC2=O)c1ccc(Cl)cc1 | inconclusive: 12 µM [inhibitor, partial curve, poor fit] |
| COc1ccccc1CNC(=O)Cc1ccc(Br)cc1 | inactive |
| Cc1ccc(-c2nnn3c2nc(Cl)c2ccccc23)cc1 | inconclusive: 2.13 µM [inhibitor, full curve] |
| COc1ccc(NC(=O)C2=Cc3cccc(OC)c3OC2)cc1 | active: 5.36 µM |
| O=C(O)CSCC(=O)Nc1ccc(-c2nc3ccccc3s2)cc1 | active: 3.01 µM |
| CCN(CC)S(=O)(=O)c1ccc(C(=O)Nc2nc3c(Cl)cc(Cl)cc3s2)cc1 | inconclusive: 6.75 µM [inhibitor, partial curve, poor fit] |
| O=C(COc1cccc(Br)c1)N/N=C1\CCCc2ccccc21 | inconclusive: 26.9 µM [inhibitor, partial curve, poor fit] |
| CCOC(=O)c1ccc(NC(=O)COCc2cc(-c3ccc4c(c3)OCO4)on2)cc1 | inactive |
| C#CCCOC(=O)N1C2=NC(C(=O)OC)=C(C(=O)OC)[C@@H]3N(CC=C)c4ccccc4[C@]23C[C@H]1C(=O)OC | inactive |
| Cc1nc2ccc(S(=O)(=O)Nc3cccc(-c4nc5cccnc5s4)c3C)cc2s1 | inconclusive: 21.3 µM [inhibitor, single point] |
| CC(C)(C)c1nnc(N/N=C/c2ccc(Br)cc2)n(N)c1=O | inconclusive: 5.36 µM [inhibitor, partial curve, poor fit] |
| C=CCSc1nnc(NC(=O)c2ccc(N3CCCC3=O)cc2)s1 | inconclusive: 10.7 µM [inhibitor, partial curve] |
| Fc1cccc(CN2CCN(C(=S)NCCc3ccccc3)CC2)c1 | inconclusive: 37.9 µM [inhibitor, partial curve, poor fit] |

| Compound | Potency |
| --- | --- |
| Cc1ccccc1N1CC(C(=O)Nc2ccc3c(c2)OCO3)CC1=O (centres undefined) | inconclusive: 26.9 µM [inhibitor, partial curve, poor fit] |
| O=C(O)Cc1c(C(=O)O)nnn1-c1ccc(Cl)cc1Cl | inconclusive: 5.36 µM [inhibitor, partial curve, poor fit] |
| O=C(O)c1ccc(N/N=C2/CCSc3ccc(F)cc32)cc1 | inconclusive: 21.3 µM [inhibitor, single point] |
| CC(=O)NCCc1nc2cc(NC(=O)COc3cccc(C)c3)ccc2n1C | inconclusive: 26.9 µM [inhibitor, partial curve, poor fit] |
| Cc1cccc(OC(=O)c2cc(-c3ccc4c(c3)OCCO4)on2)c1 | active: 4.78 µM |
| O=C(Nc1cccnc1)c1noc2c1CCCC2 | inconclusive: 26.9 µM [inhibitor, single point] |
| N#C/C(=C\c1ccccn1)c1nc2ccccc2s1 | active: 3.38 µM |
| CCc1ccc(NC(=O)CN2C(=O)COc3ccc(S(=O)(=O)N4CCCC4)cc32)cc1 | inconclusive: 26.9 µM [inhibitor, partial curve, poor fit] |
| CC(=O)Nc1ccc(C2=NN(Cc3nnc(-c4ccccc4)o3)C(=O)SC2)cc1 | inconclusive: 33.8 µM [inhibitor, partial curve, poor fit] |
| O=C(Nc1ccncc1)c1ccc(Cl)cc1 | inconclusive: 37.9 µM [inhibitor, partial curve, poor fit] |
| CCCSc1ncc(Cl)c(C(=O)N(Cc2ccc(N(C)C)cc2)C2CCS(=O)(=O)C2)n1 (centres undefined) | inactive |
| CCOc1cc(C2Nc3ccccc3NC3=C2C(=O)CC(C)(C)C3)ccc1O (centres undefined) | inactive |
| COc1cccc(N=c2oc3ccccc3cc2-c2nc3ccccc3[nH]2)c1 | active: 9.53 µM |
| CCOc1ccc(NCc2ccccc2OCc2cccc(F)c2)cc1 | inconclusive: 21.3 µM [inhibitor, partial curve, poor fit] |
| CCOC(=O)c1c(C)[nH]c(C(=O)OCc2ccccc2)c1C | active: 2.13 µM |
| CC(=O)c1c(C)nc(-c2ccc(Cl)cc2)nc1N=CN(C)C | inconclusive: 30.1 µM [inhibitor, single point] |
| COc1ccccc1NC(=O)c1c(NCc2ccc(C)o2)sc2c1CCC(C)C2 (centres undefined) | inconclusive: 37.9 µM [inhibitor, partial curve, poor fit] |
| CNC(=S)Nc1sc2c(c1C(=O)OC)CCC2 | inconclusive: 13.5 µM [inhibitor, partial curve, poor fit] |
| COc1ccc(Cc2nnc(SCC(=O)Nc3ccc(C)c(Cl)c3)[nH]c2=O)cc1 | inconclusive: 23.9 µM [inhibitor, single point] |
| COCCc1nn2c(=O)cc(COC(=O)COc3ccc(F)cc3)nc2s1 | inactive |
| COc1ccc(Oc2c(C(F)(F)F)oc3cc(OCC(=O)O)ccc3c2=O)cc1 | inactive |
| O=C(Nc1ccsc1C(=O)O)c1ccccc1Cl | inconclusive: 26.9 µM [inhibitor, partial curve, poor fit] |
| Cc1coc2cc3oc(=O)c(CC(=O)N[C@@H](CC(C)C)C(=O)O)c(C)c3cc12 | inactive |
